# Data as given in ChEMBL document CHEMBL4513135, “CO-ADD screening of IQOG CSIS (Spain) compounds”.
# The list shows a part of the results. Results with a measured potency or affinity are listed apart.
# System: Acinetobacter baumannii
# Settings: Concentration 32 ug.mL-1; ASSAY_TEST Inhibition of Bacterial Growth; detection method Absorption (OD600); MEDIA CAMHB; plate type 384well; NBS; CORNING #3640; time 18 hr
row,SMILES,Inhibition
1,NNC(=O)Cc1c[nH]c2ccccc12,3.39%
2,C#CCN(C)Cc1cc2cc(OCc3ccc(OC)c4ncccc34)ccc2n1C,-7.66%
3,COC(=O)C1(NC(=O)c2ccccc2)CC1c1ccccc1 (stereo not given),-9.02%
4,N#Cc1ccc(Br)cc1N,19.35%
5,CCOC(=O)c1c[nH]c2ccc(OCc3ccccc3)cc12,-2.63%
6,N#CC1=C(Cl)Oc2c(ccc3ccccc23)C1c1ccccc1 (stereo not given),-4.73%
7,N#Cc1cc2c(N)c3c(nc2nc1Cl)CCN(Cc1ccccc1)C3,1.22%
8,COC1(N)Oc2ccc3ccccc3c2C(c2ccccc2)C1(Br)C#N (stereo not given),13.71%
9,CCOC(=O)C1=C(C)OC(N)=C(C#N)C1c1ccccc1OC (stereo not given),2%
10,CC(=NNC(N)=O)c1c[nH]c2ccccc12,8.63%
11,C#CCNc1ncccn1,-6.96%
12,CCOC(=O)c1cc2cc(OCc3ccccc3)ccc2[nH]1,1.97%
13,CN(C)c1nc2nc3c(c(N)c2c(-c2ccccc2)c1C#N)CCCC3,20.04%
14,O=C(COc1ccc2ccccc2c1)N/N=C/c1c[nH]c2ccccc12,-7.76%
15,CC1Cc2c(Cl)nc3nc4c(c(N)c3c2NC1=O)CCCC4 (stereo not given),5.24%
16,N#Cc1c(Cl)nc(NC2CCN(Cc3ccccc3)CC2)c(C#N)c1-c1ccccc1,2.69%
17,N#Cc1cc(C#N)c(N2CCCCC2)nc1Cl,15.18%
18,Cn1ccnc1C1c2ccc3cccnc3c2Oc2nc3c(c(N)c21)CCCCC3 (stereo not given),1.29%
19,C#CCNc1nc(NCC#C)c(C#N)cc1C#N,6.24%
20,N#CC1=C(N)Oc2ccc3ccccc3c2C1,7.93%
21,N#Cc1cccnc1Cl,0.23%
22,CC1CN(C)c2c(C#N)c(-c3ccccc3)c(C#N)c(=N)n21 (stereo not given),-2.62%
23,N#CC1(Br)C(=NBr)Oc2ccc3ccccc3c2C1c1ccc([N+](=O)[O-])cc1 (stereo not given),-0.28%
24,CCOC(=O)c1cc2cc(O)ccc2n1C(=O)OC(C)(C)C,12.98%

row,SMILES,Inhibition
1,COc1ccc2cc(C=O)c(Cl)nc2c1,14.73%
2,N#CC1=C(N)Oc2c(ccc3ccccc23)C1c1ccc(O)cc1 (stereo not given),7.57%
3,COc1ccc2c(c1)cc(/C=C/[N+](=O)[O-])n2C,-3.35%
4,COc1ccc(-c2cc(-c3cc4c(C)cc(C)cc4nc3Cl)cc(=O)[nH]2)cc1,3.87%
5,COc1cccc(C2c3c(ccc4ccccc34)OC(=NBr)C2(Br)C#N)c1 (stereo not given),10.23%
6,N#CC1(Br)C(=N)Oc2ccc3ccccc3c2C1c1cccc([N+](=O)[O-])c1 (stereo not given),3.74%
7,CCOC(=O)C1=C(C)OC(N)=C(C#N)C1c1ccc([N+](=O)[O-])cc1 (stereo not given),12.84%
8,COc1ccc(C2c3ccc4ccccc4c3Oc3nc4c(c(N)c32)CCCC4)c(OC)c1 (stereo not given),-16.53%
9,CCOc1nc2nc3c(c(N)c2cc1C#N)CCCC3,13.15%
10,CCOC(=O)C1=C(C)Oc2nc3c(c(N)c2C1c1ccccc1OC)CCC3 (stereo not given),-5.85%
11,COc1ccc(C2c3c(ccc4ccccc34)OC(=N)C2(Br)C#N)cc1 (stereo not given),-2.55%
12,CC(C(=O)O)c1c[nH]c2ccccc12 (stereo not given),-5.35%
13,C#CCNc1[nH]c2ccc(O)cc2c1C#N,17.07%
14,C#CCN(C)c1nc(NCCCC2CCN(Cc3ccccc3)CC2)c(C#N)cc1C#N,-1.05%
15,O=C1OC(c2ccccc2)=NC1=Cc1ccc(Cl)cc1,2.33%
16,Cc1nc2c3cnn(-c4ccccc4)c3nc(C)n2n1,-1.29%
17,COc1nc(N)c(C#N)c(-c2ccccc2)c1C#N,5.97%
18,COc1ccc(C2c3c(ccc4ccccc34)OC(=N)C2(Br)C#N)cc1OC (stereo not given),0.78%
19,Cc1[nH]nc2c1C(c1cccc([N+](=O)[O-])c1)C(C#N)=C(N)O2 (stereo not given),-2.47%
20,N#Cc1c(N)nc(N2CCC(Cc3ccccc3)CC2)c(C#N)c1-c1ccccc1,-0.69%
21,N#CC1=C(N)Oc2ccc3ccccc3c2C1c1ccccc1 (stereo not given),9.35%
22,CC(=O)Oc1ccc(C=C2N=C(c3ccccc3)OC2=O)cc1,10.76%
23,N#Cc1cc2c(N)n[nH]c2nc1N,-2.2%
24,OCc1c(-c2ccc(Br)cc2)nc2ccccn12,-3.49%

row,SMILES,Inhibition
1,O=C(N[C@H]1CC[C@H](O)CC1)c1ccccc1,13.58%
2,O=C1NC(=S)N/C1=C\c1c[nH]c2ccccc12,-0.48%
3,COc1cc(CCC(N)=O)ccc1O,-1.72%
4,Cl.ClCCCN1CCCC1,-12.22%
5,C#CCN(C)c1nc(Cl)c(C#N)c(-c2ccccc2)c1C#N,16.3%
6,C#CCN(C)c1cc(C)nc(C)n1,-1.71%
7,Cc1[nH]nc2c1C(c1ccc(O)c(O)c1)C(C#N)=C(N)O2 (stereo not given),-14.7%
8,Cc1ccccc1-c1c(C=N)c(N)nc2c1S(=O)(=O)OC2(C)C,-8.26%
9,C#CC[n+]1ccccc1N.[Br-],10%
10,CCOc1nc(N)c(C#N)cc1C#N,8.13%
11,COc1ccc2cc(C3C(C(C)=O)=C(C)Oc4nc5c(c(N)c43)CCCCC5)c(Cl)nc2c1 (stereo not given),0.08%
12,COC(=O)C(=Cc1ccc(OC)cc1)NC(C)=O,-3.76%
13,N#Cc1cc(Br)cc(Br)c1N,11.09%
14,C=C1CN(Cc2ccccc2)c2c(C#N)c(-c3ccccc3)c(C#N)c(=N)n21,11.5%
15,Cn1c(CNNC(=O)Cc2cccc3ccccc23)cc2ccccc21,-12.86%
16,CSC1=NC(=Cc2ccccc2)C(=O)N1C,3.72%
17,Cl.N#Cc1c(N)nc(NCCO)c(C#N)c1-c1ccccc1,10.99%
18,CC(=O)NC=C1C(=O)OC(C)(C)OC1=O,0.37%
19,CC1=C(C(=O)O[C@@H]2C[C@@]3(C)CC[C@H]2C3(C)C)C(c2ccccc2)C(C#N)=C(N)O1 (stereo not given in full),5.05%
20,CC1=NC(=Cc2ccccc2)C(=O)S1,5.61%
21,N#Cc1c(Cl)nc(Cl)c(C#N)c1-c1ccccc1,6.21%
22,Cc1nn(-c2ccccc2)c2ncn3nc(-c4ccccc4)nc3c12,-0.63%
